Experimental findings from the supplement of paper PMC11417369 are described below.

Some of the results follow.

The experiment relates to PF3D7_0420300 AP2 domain 1 (GST-tagged). Briefly: gcPBM binding intensity (ln(normalized median fluorescence intensity)); higher = stronger DNA binding. Put shortly: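 After 1 h on an Agilent 4 × 180k array of primer-extended double-stranded 36-bp intergenic genomic probes and negative controls, bound GST-tagged P. falciparum DNA-binding domains were detected with Alexa488 anti-GST antibody and scanned at 488 nm. The domains had been expressed in E. coli, and binding took place in 1× PBS with 1% milk, 0.2 mg/ml BSA, 0.5% salmon testes DNA and 0.03% Triton X-100. Binding intensity is the highest Masliner-normalised natural-log median intensity across replicate spots of either probe orientation.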
Regarding “AAGAGAGAGAAATATGCACACATAAGGGAAATAAAT [CACACA_site8300]”, the “gcPBM binding intensity (ln)” value came out at 9.6. In the case of “TATATATGTATGTATGTACACACAAAAAATGGAATA [CACACA_site9235]”, the “gcPBM binding intensity (ln)” value was 9.64. As for “AAAATTTTTTTTGGCGCACACTAATAATAAAATATA [CACACA_site470]”, the “gcPBM binding intensity (ln)” value was 9.04. As for “CTTTTTAATGAATACACACACACACCGATATATATA [CACACA_site5296]”, the “gcPBM binding intensity (ln)” value amounted to 10.1.

Consider “GAATAATATGGACATACACACATATACATACCTATA [CACACA_site7075]”, for which the “gcPBM binding intensity (ln)” value was found to be 9.79.

As for “AAATATTATTGACGATGTACTTCTATTCATAAGTAT [XGTACX_site3964]”, the “gcPBM binding intensity (ln)” value is 9.14. As for “TAAAACTTATACAAATGTACAAATATATATATATAT [XGTACX_site4661]”, the figure is 9.24; as for “AGACGATAAATCATTCATTCATTTACCATCCAAAAA [CACACA_negctrl_site802]”, 9.02; as for “TTTTAATTAGTACAAACACACATATACAGACAAAAA [CACACA_site2563]”, 9.71. As for “TAATATAGAAAATGCATACACACTTTATATATATAT [CACACA_site911]”, the figure is 9.39; as for “TACTATTATTATTGCACACTTATTATCCCTCGGATA [CACACA_site162]”, 9.31. Take “TGATCATAGAAACACACACACAAAAAAAAAAAAAAA [CACACA_site4008]”: the “gcPBM binding intensity (ln)” value was determined as 9.56.

Regarding “AATATATATTAATACACACACACATATATATATATA [CACACA_site3786]”, the “gcPBM binding intensity (ln)” value stood at 9.98. For the sequence “TATAATAATACTTATTGTACTATTAGTTTAATTCAT [XGTACX_site6638]”, the “gcPBM binding intensity (ln)” value is 9.07.

On to “AATAATTTAATACATACACACGTATATCTTTTTTTT [CACACA_site8632]”, for which the “gcPBM binding intensity (ln)” value came out at 9.53. As to “TATATATATAACATATGTACATATATTTATAAATAC [XGTACX_site5484]”, the “gcPBM binding intensity (ln)” value came out at 9.19. Then “TATATAAATATACACCCACACACATATATATATATA [CACACA_site9247]”, with 9.63; and “ATCGTAGTATAATATGAACACACACCCACCCACAAA [CACACA_site8616]”, with 10.2; and “TATAAAAAAAAATGTGGTACATATTTCCATTTTCCA [XGTACX_site4571]”, with 9.01. As to “TAAATCCGCACGCACACACACATATTAATAAAAAAA [CACACA_site7800]”, the “gcPBM binding intensity (ln)” value stood at 9.68. “TTATTTTTATTATAAATTATAAAATATAAATAAATA [GTGCAC_negctrl_site616]”: the “gcPBM binding intensity (ln)” value stood at 8.65. Consider “GAAACTATGTAATGCACACCAAAATAAAATTATTAA [CACACA_site1904]”, for which the “gcPBM binding intensity (ln)” value is 9.27.

For “TCTTCTTAACCAACTATGAAAAGGAAAAATATAACA [GTGCAC_negctrl_site565]”, the “gcPBM binding intensity (ln)” value stood at 9.06. Consider “ATATATTATATATATAGTACGTATATAAATTTAATT [XGTACX_site5041]”, for which the “gcPBM binding intensity (ln)” value was determined as 9.21. As for “CATGAATTTTTTTAATGTACATTCACATCATAAAAA [XGTACX_site7475]”, the figure is 8.89; as for “ATTATAAAAAAGAAACGTACATATTTATTGTTTTTT [XGTACX_site2161]”, 9.32. Consider “TAAATAAATTTATGTACACACACAAATAAATACATA [CACACA_site5107]”, for which the “gcPBM binding intensity (ln)” value came to 9.81. As for “AAAAAAAAGAAAAACACACACATATTTATTTATAAC [CACACA_site6600]”, the figure is 9.93; as for “TATATATTAAATTATAGTACACATTATATATAATTA [XGTACX_site4841]”, 9.18; as for ATAATATATGTATGTATGCACTTTTATTATTTTTTT, 9.54. Then “TATATATATATATATAGTACACATATCACATAAATG [XGTACX_site6379]”, with 9.27.

With “ATAATATATATATTTTGTACACATGAAAAGGAGGAT [XGTACX_site5034]”, the “gcPBM binding intensity (ln)” value was found to be 9.52.

Consider “ATATATATATATGTACACATATATGTGTTTGTTTTT [GTGCAC_negctrl_site5]”, for which the “gcPBM binding intensity (ln)” value worked out at 9.7.

With “CTATTACAAAGAAATTGTACATATATATATAAAAAC [XGTACX_site8800]”, the “gcPBM binding intensity (ln)” value was found to be 9.31.

With “ATCTTTCAATAATTCACACATATATATATATATATA [CACACA_site4598]”, the “gcPBM binding intensity (ln)” value was determined as 9.37. On to “AGCCACAATACGGAAACACACAAGTTATTTTATCAT [CACACA_site2724]”, for which the “gcPBM binding intensity (ln)” value turned out to be 9.48. As for “AATGAAGACTTTTTTACACACTTCATATCTTATAGA [CACACA_site7046]”, the figure is 9.39. On to “TTTTAACGTAATTCAAATGAGCAGAATTTTTTAAAA [CACACA_negctrl_site1800]”, for which the “gcPBM binding intensity (ln)” value was 8.83.

As for “TTTTTATGAATTCTTTTGTTAATAATAATATGTTGT [TGCATGCA_negctrl_site198]”, the “gcPBM binding intensity (ln)” value was found to be 9.19. As for “AAATTTTTTCCGATTTGTACTTATATTTCTTTATTA [XGTACX_site1762]”, the figure is 9.52; as for “AATATTTTTAATTAATGTACATATTTATTATATAAA [XGTACX_site5112]”, 8.92; as for “AAATAAGAGCGTAGCACACACGCATTTTATAAATGG [CACACA_site4571]”, 9.25.

“TCATATAAGTTTAGTAGTACTAAAAGTTAGAGAGAA [XGTACX_site3430]”: the “gcPBM binding intensity (ln)” value amounted to 9.24. As for “TGATTATTATAATTTAGTACATAATATTTTATATAA [XGTACX_site6125]”, the figure is 8.94.
